Reference: the supplement of paper PMC4967469
By IC50 is meant the dose at which the fit gives 50% viability; a limit (>, <) means that the fit lies beyond the doses tested. AUC sums up the same curve from the lowest dose to the 256-fold higher top dose; the more sensitive the line, the further below 1. For some assays here: Any top dose called inferred comes from the curve model; the source does not state it.

Experiments:
Assay in all cases: Viability of human cancer cell lines after 72 h of drug (GDSC screen)
IOX2 = compound: O=C(O)CNC(=O)c1c(O)c2ccccc2n(Cc2ccccc2)c1=O [IOX2]; conditions: top dose 0.1 µM; top dose inferred
Description: (§1)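 Human cancer cell lines in 384-well plates, medium with 10% serum, drug for 72 h over a 256-fold dose range (nine 2-fold or five 4-fold steps up to the top dose). Adherent lines were fixed and stained with the nucleic acid dye Syto60, suspension lines read with resazurin; signal relative to control wells, capped at 0 and 100%. One two-parameter sigmoid per drug and line, fitted in a mixed model over all curves with the slope shared within a line.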

Midostaurin = compound: CO[C@@H]1[C@H](N(C)C(=O)c2ccccc2)C[C@H]2O[C@]1(C)n1c3ccccc3c3c4c(c5c6ccccc6n2c5c31)C(=O)NC4 [Midostaurin]; conditions: top dose 0.512 µM; top dose inferred
Description: as §1

NVP-BHG712 = compound: Cc1ccc(C(=O)Nc2cccc(C(F)(F)F)c2)cc1Nc1nc(-c2cccnc2)nc2c1cnn2C [NVP-BHG712]; conditions: top dose 10.24 µM; top dose inferred
Description: as §1

Bosutinib = compound: COc1cc(Nc2c(C#N)cnc3cc(OCCCN4CCN(C)CC4)c(OC)cc23)c(Cl)cc1Cl [Bosutinib]; conditions: top dose 2 µM
Description: as §1

Cell Line	AUC (IOX2)	IC50 (IOX2)	AUC (Midostaurin)	IC50 (Midostaurin)	AUC (NVP-BHG712)	IC50 (NVP-BHG712)	AUC (Bosutinib)	IC50 (Bosutinib)
LOXIMVI (melanoma, semi-adherent)	0.989	> 100 nM	0.953	> 512 nM	0.906	> 10200 nM		
LoVo (large intestine, adherent)	0.98	> 100 nM	0.892	> 512 nM	0.895	> 10200 nM	0.877	> 2000 nM
SW1710 (bladder, adherent)	0.982	> 100 nM	0.717	135 nM	0.836	7100 nM	0.916	> 2000 nM
SK-UT-1 (soft tissue, adherent)	0.986	> 100 nM	0.84	309 nM	0.95	> 10200 nM	0.88	1750 nM
COLO-679 (melanoma, adherent)	0.983	> 100 nM	0.918	> 512 nM	0.934	> 10200 nM	0.985	> 2000 nM
U-2-OS (osteosarcoma, adherent)	0.98	> 100 nM	0.907	> 512 nM	0.985	> 10200 nM	0.934	> 2000 nM
SU-DHL-10 (B-cell lymphoma, suspension)	0.997	> 100 nM	0.828	202 nM	0.651	1480 nM		
NCI-H358 (lung adenocarcinoma, adherent)	0.982	> 100 nM	0.799	277 nM	0.823	6970 nM	0.914	> 2000 nM
Hs746T (stomach, adherent)	0.978	> 100 nM	0.972	> 512 nM	0.939	> 10200 nM	0.967	> 2000 nM
KP-3 (pancreas, adherent)	0.962	> 100 nM	0.86	> 512 nM	0.869	> 10200 nM	0.899	> 2000 nM
HCC1806 (breast, adherent)	0.988	> 100 nM	0.947	> 512 nM	0.944	> 10200 nM		
PCI-6A (head and neck, adherent)	0.986	> 100 nM	0.875	486 nM	0.915	> 10200 nM	0.65	322 nM
MG-63 (osteosarcoma, adherent)	0.979	> 100 nM	0.75	190 nM	0.984	> 10200 nM	0.981	> 2000 nM
KP-1N (pancreas, adherent)	0.976	> 100 nM	0.845	397 nM			0.97	> 2000 nM
NCI-H596 (lung adenocarcinoma, adherent)	0.974	> 100 nM	0.982	> 512 nM	0.915	> 10200 nM	0.982	> 2000 nM
HSC-2 (head and neck, adherent)	0.964	> 100 nM	0.805	234 nM	0.975	> 10200 nM	0.918	> 2000 nM
HSC-3 (head and neck, adherent)	0.989	> 100 nM	0.886	424 nM	0.976	> 10200 nM		

Cell Line	AUC (IOX2)	IC50 (IOX2)	AUC (Midostaurin)	IC50 (Midostaurin)	AUC (NVP-BHG712)	IC50 (NVP-BHG712)	AUC (Bosutinib)	IC50 (Bosutinib)
SNU-182 (liver, adherent)	0.985	> 100 nM	0.885	> 512 nM	0.933	> 10200 nM	0.902	> 2000 nM
A431 (skin, adherent)	0.965	> 100 nM	0.715	126 nM	0.876	9420 nM	0.878	1880 nM
HCC-44 (lung adenocarcinoma, adherent)	0.984	> 100 nM	0.741	153 nM	0.841	6910 nM	0.986	> 2000 nM
KP-4 (pancreas, adherent)	0.987	> 100 nM	0.826	292 nM	0.985	> 10200 nM		
P12-ICHIKAWA (T-cell lymphoblastic leukaemia, suspension)	0.994	> 100 nM	0.9	390 nM	0.908	8420 nM	0.994	> 2000 nM
RT-112 (bladder, adherent)	0.983	> 100 nM	0.815	310 nM	0.908	> 10200 nM		
HL-60 (acute myeloid leukaemia, suspension)	0.989	> 100 nM			0.624	1360 nM	0.891	1910 nM
RCC-FG2 (kidney, adherent)	0.957	> 100 nM			0.942	> 10200 nM	0.867	> 2000 nM
OACM5-1 (oesophagus, semi-adherent)	0.985	> 100 nM			0.66	1900 nM	0.977	> 2000 nM
MOLT-4 (lymphoblastic leukaemia, suspension)	0.991	> 100 nM			0.832	4920 nM	0.831	956 nM
MOLT-13 (T-cell lymphoblastic leukaemia, suspension)	0.983	> 100 nM			0.712	2330 nM	0.971	> 2000 nM
SNU-61 (large intestine, adherent)	0.979	> 100 nM			0.912	> 10200 nM	0.941	> 2000 nM
ESO51 (oesophagus, semi-adherent)	0.963	> 100 nM			0.894	> 10200 nM	0.969	> 2000 nM
NCI-H460 (large cell lung carcinoma, adherent)	0.982	> 100 nM			0.901	> 10200 nM	0.703	436 nM
SK-MG-1 (glioma, adherent)	0.977	> 100 nM			0.965	> 10200 nM	0.926	> 2000 nM
T47D (breast, adherent)	0.974	> 100 nM			0.901	> 10200 nM	0.966	> 2000 nM
